Source: US20210355219A1

Biological target: C00703 huCD40::Fc (human)
Experiment: BLI (Octet); huCD40::Fc immobilized, masked protein at 100 nM in conditioned media; nm shift relative to unmasked control anti-Alb-anti-CD40

Sequence of C00703 huCD40::Fc (human) (chain, as listed by the source limits assumed): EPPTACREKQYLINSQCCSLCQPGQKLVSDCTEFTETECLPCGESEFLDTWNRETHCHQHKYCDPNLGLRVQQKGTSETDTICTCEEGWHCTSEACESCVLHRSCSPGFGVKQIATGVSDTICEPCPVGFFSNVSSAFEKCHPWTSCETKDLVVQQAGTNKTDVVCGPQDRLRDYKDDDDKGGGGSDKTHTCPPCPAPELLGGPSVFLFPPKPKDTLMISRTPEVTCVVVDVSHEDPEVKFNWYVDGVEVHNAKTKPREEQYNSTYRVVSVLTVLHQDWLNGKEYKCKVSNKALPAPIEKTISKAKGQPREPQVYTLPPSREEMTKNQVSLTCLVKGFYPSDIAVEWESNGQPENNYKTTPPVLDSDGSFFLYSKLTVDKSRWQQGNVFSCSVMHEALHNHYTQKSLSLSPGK

Binding response (% of control): 7 % of control
B1: anti-Alb-CD-2-C06 (mask070) masked anti-CD40 protein with anti-CD40 heavy chain SEQ ID No. 73 (bispecific antibody, human IgG1, kappa)
heavy: [about 100 residues not given here]DQPLGYCTNGVCSYFDYWGQGTLVTVSS[human IgG1 constant region not given here]
light: EVQLVESGGGLVQPGNSLTLSCAASGFTFSKFGMSWVRQARAASAGQGLEWVSSISGSGRDTLYADSVKGRFTISRDNAKTTLYLQMNSLRPEDTAVYYCTIGGSLSVSSQGTLVTVSSGGGGSGGGSGGGGSGGGSDIQMTQSPSSVSASVGDRVTITCRASQGIYSWLAWYQQKPGKAPNLLIYTASTLQSGVPSRFSGSGSGTDFTLTISSLQPEDFATYYCQQANIFPLTFGGGTKVEIKRTVAAPSVFIFPPSDEQLKSGTASVVCLLNNFYPREAKVQWKVDNALQSGNSQESVTEQDSKDSTYSLSSTLTLSKADYEKHKVYACEVTHQGLSSPVTKSFNRGEC
